Experimental data: publication PMC4336329 (PLoS ONE, 2015)
Hit rate of the full screen: of about 310,000 compounds, about 14,000 (4.5%) showed an effect of 50% or more. Effects have a minus sign here. Some of the results follow.

Target: human ether-à-go-go-related gene (hERG) potassium channel (human, UniProt Q12809)
Experiment: primary screen, population patch clamp on CHO cells stably expressing hERG
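Further: peak tail current of the secondary pulse compared with the same well before compound.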

Chain of human ether-à-go-go-related gene (hERG) potassium channel (Q12809 whole entry, looked up): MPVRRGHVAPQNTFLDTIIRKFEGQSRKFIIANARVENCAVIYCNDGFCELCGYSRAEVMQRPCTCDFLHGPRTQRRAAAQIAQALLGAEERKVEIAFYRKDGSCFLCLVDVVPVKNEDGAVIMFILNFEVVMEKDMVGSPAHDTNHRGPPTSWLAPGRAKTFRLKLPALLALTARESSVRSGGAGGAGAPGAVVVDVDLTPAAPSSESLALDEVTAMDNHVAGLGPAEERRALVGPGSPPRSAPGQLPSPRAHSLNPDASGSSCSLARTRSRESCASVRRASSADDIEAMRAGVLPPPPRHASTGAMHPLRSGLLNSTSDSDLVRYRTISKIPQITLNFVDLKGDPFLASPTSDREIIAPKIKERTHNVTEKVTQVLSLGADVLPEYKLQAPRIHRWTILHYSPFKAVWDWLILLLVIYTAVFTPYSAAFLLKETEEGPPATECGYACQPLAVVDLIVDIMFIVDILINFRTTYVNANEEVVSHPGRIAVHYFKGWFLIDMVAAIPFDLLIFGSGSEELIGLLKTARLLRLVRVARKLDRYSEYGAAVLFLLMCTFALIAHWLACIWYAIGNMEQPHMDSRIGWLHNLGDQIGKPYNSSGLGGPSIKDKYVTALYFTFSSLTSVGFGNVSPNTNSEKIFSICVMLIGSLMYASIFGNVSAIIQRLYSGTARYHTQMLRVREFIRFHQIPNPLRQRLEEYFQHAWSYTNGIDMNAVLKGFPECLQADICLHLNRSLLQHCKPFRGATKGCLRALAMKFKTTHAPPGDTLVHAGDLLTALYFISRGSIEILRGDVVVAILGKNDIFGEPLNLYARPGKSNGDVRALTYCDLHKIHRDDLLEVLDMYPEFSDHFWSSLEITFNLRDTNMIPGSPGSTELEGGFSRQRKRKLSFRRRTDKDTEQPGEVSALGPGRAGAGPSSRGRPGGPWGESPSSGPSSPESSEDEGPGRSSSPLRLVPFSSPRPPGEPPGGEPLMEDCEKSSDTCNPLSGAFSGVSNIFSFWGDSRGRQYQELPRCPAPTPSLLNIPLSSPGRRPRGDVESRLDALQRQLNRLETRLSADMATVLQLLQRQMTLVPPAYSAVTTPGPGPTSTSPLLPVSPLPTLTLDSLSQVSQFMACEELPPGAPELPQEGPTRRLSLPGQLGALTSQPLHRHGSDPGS

SMILES	hERG current change (%, negative = inhibition) at 10uM
FC(F)(F)c1cc(-c2ccccc2)nc(N2CCCCCC2)n1	20.5%
CSCC[C@H](NC(=O)Nc1ccc(Oc2ccccc2)cc1)C(=O)O	26.1%
CCOc1ccc(CCNC(=O)c2cccc(S(=O)(=O)N3CCCC3)c2)cc1OCC	-26%
CC(OC(=O)c1ccco1)C(=O)NCc1ccc2c(c1)OCO2 (stereo not drawn)	-0.231%
Cc1ccccc1NC(=O)Cn1nc(C(=O)O)c2ccccc2c1=O	9.6%
Cc1cccc(OCCCn2ccnc2)c1	-14.9%
O=c1c2sccc2nc(SCc2cc(=O)n3cc(Cl)ccc3n2)n1-c1ccc(F)cc1	-3.21%
CCN(CC)S(=O)(=O)c1ccc(OC)c(NC(=O)c2cn(CC)c3nc(C)ccc3c2=O)c1	26.7%
Cc1ccc(OCC(=O)NC(=S)Nc2cccc(C)n2)cc1	4.25%
COc1cc(/C=N/n2nnnc2N)ccc1OC(C)=O	14.8%
Cc1ccccc1NC(=O)c1ccc(OCC(=O)Nc2ccccc2F)cc1	16%
O=C(CN1CCN(S(=O)(=O)c2ccc(Br)cc2)CC1)N/N=C/c1ccco1	-56.9%
COCCCN1C(=O)C(O)=C(C(C)=O)C1c1cccc(F)c1 (stereo not drawn)	7.18%
O=C(NC(=S)N1CCN(c2ccccc2)CC1)c1ccccc1	1.58%
Cc1sc2ncnc(SCC(=O)c3ccc(O)cc3O)c2c1C	19.7%
COC(=O)/C=C/c1ccc(-n2ccnc2)cc1	-22.5%
CCCCCC(=O)NNC(=O)c1ccc(F)cc1	8.69%
CC(C)(C)N1CC(COc2ccccc2)OC1=O (stereo not drawn)	-8.98%
CS(=O)(=O)c1ccc(Cl)c(C(=O)NC2CCSc3ccccc32)c1 (stereo not drawn)	5.95%

SMILES	hERG current change (%, negative = inhibition) at 10uM
COP(=O)(NS(=O)(=O)c1ccccc1)OC	19.9%
Cc1ccc(S(=O)(=O)N2CCOCC2)cc1C(=O)Nc1nc2ccccc2[nH]1	-10.6%
C=CCn1c(O)c(C(C)=NCCN2CCN(C(=S)NC)CC2)c(=O)[nH]c1=O	0.328%
O=C(COC(=O)C1COc2ccccc2O1)NC(=O)Nc1ccc2c(c1)OCCO2 (stereo not drawn)	-6.36%
CCn1nc(C(=O)OCC(=O)Nc2ncc(Cl)c(C)c2Cl)c2ccccc2c1=O	-2.63%
COc1cccc(-c2nn(C)c3sc(C(=O)Nc4ccc5c(c4)OCCO5)cc23)c1	20.4%
Clc1cccc(OCc2nnc(-c3ccccc3Br)o2)c1	21.9%
O=C(COc1ccc2c3c(c(=O)oc2c1)CCCC3)NCc1ccccn1	4.11%
O=C(Cc1ccccc1)Nc1cccc(NC(=O)c2cccs2)c1	6.58%
CCN1CCN(C(=S)Nc2ccc3nc(N4CCN(CC)CC4)cc(C)c3c2)CC1	-13.9%
CN1C(=O)N(C)C2(c3ccccc3)N(C)C(=O)NC12c1ccccc1 (stereo not drawn)	-22.9%
CC(C)(C)c1ccc(/C=C2/SC(N3CCCC3)=NC2=O)cc1	-51.1%
COc1ccccc1N1CCN(CC(O)COc2ccc3c(C)cc(=O)oc3c2)CC1 (stereo not drawn)	-24.7%
Cl.O=C(CNCc1cccs1)Nc1ccc(S(=O)(=O)N2CCCCC2)cc1	-70.9%
CN(C)/C=C1\N=C(c2ccc3c(c2)OCO3)OC1=O	14.8%
CCC(C)Cn1c(C)nc2ccccc21 (stereo not drawn)	2.37%
COc1ccc(NC2CCCN(C(=O)c3csc(C)n3)C2)cc1 (stereo not drawn)	9.97%
C=CCn1c(=O)c2c(nc3n2CC(C)CN3c2cccc(OC)c2)n(C)c1=O (stereo not drawn)	-21.7%
NC(=O)CC(NC(=O)c1ccccc1)c1ccc(N2CCc3ccccc3C2)c([N+](=O)[O-])c1 (stereo not drawn)	-3.72%

SMILES	hERG current change (%, negative = inhibition) at 10uM
O=S(=O)(c1cccc2nonc12)N1CCN(c2ccccc2F)CC1	4.42%
Nc1ncc(Br)cc1N=Cc1ccccc1	3.57%
O=C(O)CCCCCN1C(=O)C(O)=C(C(=O)/C=C/c2ccccc2)C1c1ccc2c(c1)OCO2 (stereo not drawn)	1.89%
CCOC(=O)C1CCN(C(=O)c2cc3cc4ccc(C)cc4nc3o2)CC1	-11.7%
CCOC(=O)CSC1=NC(=O)/C(=C/c2ccc(OC)cc2)S1	21.5%
O=C(O)c1cnn(-c2ccccc2)c1-n1cccc1	9%
O=c1c2ccccc2nc(/C=C/c2cccc([N+](=O)[O-])c2)n1CCCO	-43%
CCN1CCN(Cc2ccc(OC(F)(F)F)cc2)CC1	-26.6%
COc1ccc(CCNC(=O)COc2nncc3ccccc23)cc1	-0.573%
Cc1[nH]n(-c2ccccc2)c(=O)c1/C=C1\C=NN=C1c1ccccc1	6.9%
CCOC(=O)c1ccc(N2C(=O)c3n[nH]c(C)c3C2c2cccnc2)cc1 (stereo not drawn)	-17.2%
O=C(COC(=O)c1cc2ccccc2cc1O)Nc1cccnc1Cl	11.2%
CCc1cc2c(=O)oc(-c3ccc(F)cc3)nc2s1	16.4%
COC(=O)C1=C(c2cc3ccccc3o2)C[C@@H]2CC[C@H]1N2C(=O)NCc1ccccc1	-26.2%
CCOC(=O)c1cnn(-c2ccccc2)c1-n1cccc1	-8.27%
Cc1ccc(OCC(=O)Nc2ccc(N3CCN(C(=O)c4ccco4)CC3)cc2)c(C)c1	-32.1%
Cc1c(C)c2c(OCC(=O)N3CCC(C(N)=O)CC3)cc3c(c2oc1=O)CCC(C)(C)O3	-8.3%
CCC(C)N(C(=O)c1csnn1)C(C(=O)NC(C)(C)C)c1ccccc1 (stereo not drawn)	2.13%
CC1(C)CN(C(Cc2ccccc2)C(N)=O)C1=O (stereo not drawn)	14.6%
